This is an account of results in the RNAGym collection of RNA variant scans (doi:10.1073/pnas.2313332121).

First the molecules themselves.
B1: TPR 5TU (parent)
chain: GGAUCUUCUCGAUCUAACAAAAAAGACAAAUCUGCCACAAAGCUUGAGAGCAUCUUCGGAUGCAGAGGCGGCAGCCUUCGGUGGCGCGAUAGCGCCAACGUUCUCAACUAUGACACGCAAAACGCGUGCUCCGUUGAAUGGAGUUUAUCAUG

Variants at the floor of the assay are shown more often than the library holds them.

This data set covers variants of B1. The data set is described as follows: polymerase ribozyme fitness, log enrichment relative to wild type (log ratio); higher = more active; in vitro selection for triplet polymerase activity. A digest of the protocol: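 Streptavidin-bead capture of gel-excised extended constructs, followed by RT-PCR, closed a single triplicate in vitro selection round. That round began by annealing PCR-built, transcribed mutant libraries of each subunit of a heterodimeric triplet polymerase ribozyme with a biotinylated primer, the partner subunit and triplets, then incubating them frozen at −7 °C. After Illumina sequencing of inputs and outputs, genotypes needed ≥10 input reads and ≥1 read per output. Fitness is the base-2 logarithm of genotype enrichment over wild-type enrichment, using inverse-variance-weighted replicate averages.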
For the variant A47G G88U U90C A110U U139G U144A, the “polymerase ribozyme fitness (log ratio)” value is ≤ -4.2.

For the variant G50A C69G C87G C116A, the “polymerase ribozyme fitness (log ratio)” value was ≤ -4.2.

Turning to A49C G59C U77G C87G, the “polymerase ribozyme fitness (log ratio)” value was ≤ -4.2.

With A49U U53A U55A G88A A115G C123U, the “polymerase ribozyme fitness (log ratio)” value was ≤ -4.2.

Consider A49G A52C C95U C96A C99A, for which the “polymerase ribozyme fitness (log ratio)” value was ≤ -4.2.

As for A47G C85G A106U A115U G141U, the “polymerase ribozyme fitness (log ratio)” value was ≤ -4.2.

A49U G67A U77G C99A U109G U111G G133A G143U A147G: the “polymerase ribozyme fitness (log ratio)” value was ≤ -4.2.

For A49C G84C U90G C103G A115U, the “polymerase ribozyme fitness (log ratio)” value was ≤ -4.2.

Take G50A G58A A113G G117C G141C: the “polymerase ribozyme fitness (log ratio)” value is ≤ -4.2.

For the variant A47G C51U A66C C87U, the “polymerase ribozyme fitness (log ratio)” value is ≤ -4.2.

Consider A49C G74C C87A C125U, for which the “polymerase ribozyme fitness (log ratio)” value is ≤ -4.2.

For the variant G48C C54A G58C A91U U104G A121U, the “polymerase ribozyme fitness (log ratio)” value is ≤ -4.2.

On to A49C C85A, for which the “polymerase ribozyme fitness (log ratio)” value was ≤ -4.2.

For the variant G48C U53A G74C C85U C99U A119G A120G, the “polymerase ribozyme fitness (log ratio)” value is ≤ -4.2.

On to A49G G50C C95U A98G U145G, for which the “polymerase ribozyme fitness (log ratio)” value was -2.77.

As to A47G G50C U82G, the “polymerase ribozyme fitness (log ratio)” value was ≤ -4.2.

Regarding G48A A49U G70U C75A G88A, the “polymerase ribozyme fitness (log ratio)” value was ≤ -4.2.

In the case of A47C C93U, the “polymerase ribozyme fitness (log ratio)” value was -1.69.

For A47C C87A, the “polymerase ribozyme fitness (log ratio)” value was ≤ -4.2.

For A47C C87U, the “polymerase ribozyme fitness (log ratio)” value was -0.109.

As to A47C G81C C99A U134G, the “polymerase ribozyme fitness (log ratio)” value was -4.06.

Take G48C C63U A142G: the “polymerase ribozyme fitness (log ratio)” value is -1.03.

Regarding G50A C72U A98C C99A, the “polymerase ribozyme fitness (log ratio)” value was ≤ -4.2.

For A47C U56C G67U C75A U90A C93U, the “polymerase ribozyme fitness (log ratio)” value was ≤ -4.2.

A47C C93A A107G G140U: the “polymerase ribozyme fitness (log ratio)” value was ≤ -4.2.

As for A49C A73U, the “polymerase ribozyme fitness (log ratio)” value was ≤ -4.2.

Regarding A49C U56A G88U A122C C125U, the “polymerase ribozyme fitness (log ratio)” value was ≤ -4.2.

As to A49U C85U C93G C132U, the “polymerase ribozyme fitness (log ratio)” value is ≤ -4.2.

Consider G50A C57A C76G C93G, for which the “polymerase ribozyme fitness (log ratio)” value is ≤ -4.2.

Consider G50A C54G G88U A120U A142G, for which the “polymerase ribozyme fitness (log ratio)” value is ≤ -4.2.

Take A49C C116U: the “polymerase ribozyme fitness (log ratio)” value was ≤ -4.2.

With A49U C85G C125U U144G U148C, the “polymerase ribozyme fitness (log ratio)” value was ≤ -4.2.

Turning to A47C U56A A60G C85U C96U A150U, the “polymerase ribozyme fitness (log ratio)” value is -0.791.

On to A49C C79A C108U C123A, for which the “polymerase ribozyme fitness (log ratio)” value was ≤ -4.2.

Regarding A49C G94A C132A G143U, the “polymerase ribozyme fitness (log ratio)” value is ≤ -4.2.

On to A47C G50C, for which the “polymerase ribozyme fitness (log ratio)” value is -4.1.

G48C G68C C85A C96A: the “polymerase ribozyme fitness (log ratio)” value is ≤ -4.2.

Consider A49U A89C U102A G141A U146C, for which the “polymerase ribozyme fitness (log ratio)” value was ≤ -4.2.

With G48A A52C C85U, the “polymerase ribozyme fitness (log ratio)” value is -2.93.

Regarding G48C C69U A137C U144C, the “polymerase ribozyme fitness (log ratio)” value was ≤ -4.2.

For A49C G58C G59C G94U U101G C129G U139G, the “polymerase ribozyme fitness (log ratio)” value was ≤ -4.2.

For G48U A52U C93A C95U U145A, the “polymerase ribozyme fitness (log ratio)” value is ≤ -4.2.

With A47G C87U C99U, the “polymerase ribozyme fitness (log ratio)” value was -1.24.

In the case of A47U C79A G84U C118A G124A, the “polymerase ribozyme fitness (log ratio)” value was ≤ -4.2.

Turning to G48A U61A C105G, the “polymerase ribozyme fitness (log ratio)” value is ≤ -4.2.

As to A49C A52C G68U G80C C87A A113U U134A, the “polymerase ribozyme fitness (log ratio)” value was ≤ -4.2.

On to G48A G50A C93G A97U C149A, for which the “polymerase ribozyme fitness (log ratio)” value was ≤ -4.2.

Consider A49C C79U U151G, for which the “polymerase ribozyme fitness (log ratio)” value was ≤ -4.2.

Turning to A47C U56A G65C G80U C103G, the “polymerase ribozyme fitness (log ratio)” value is ≤ -4.2.

G48U C85A U104C C132A: the “polymerase ribozyme fitness (log ratio)” value was ≤ -4.2.

On to A47U A66C C76G U78G U101G C125A, for which the “polymerase ribozyme fitness (log ratio)” value is ≤ -4.2.

For the variant G48U A142U, the “polymerase ribozyme fitness (log ratio)” value is -2.92.

A49G G94C G133U G152U: the “polymerase ribozyme fitness (log ratio)” value is ≤ -4.2.

In the case of A47U A49G G141A U145A, the “polymerase ribozyme fitness (log ratio)” value was ≤ -4.2.

A49G G94C A97G A137G: the “polymerase ribozyme fitness (log ratio)” value is ≤ -4.2.

Regarding A49C C51A A142C A150C, the “polymerase ribozyme fitness (log ratio)” value is ≤ -4.2.

For G50A C93U C95A U111A G141U, the “polymerase ribozyme fitness (log ratio)” value is ≤ -4.2.

Regarding G48C C87G G88C A91G A119U U134G, the “polymerase ribozyme fitness (log ratio)” value is ≤ -4.2.

Regarding A49C C57A G68C G143C, the “polymerase ribozyme fitness (log ratio)” value is ≤ -4.2.

On to G48U C95U C105G A115G A147U U151C, for which the “polymerase ribozyme fitness (log ratio)” value was ≤ -4.2.

Regarding A47U A52U G80C G117C, the “polymerase ribozyme fitness (log ratio)” value was ≤ -4.2.

On to A49G C85G C93U, for which the “polymerase ribozyme fitness (log ratio)” value is ≤ -4.2.

With G50A C76A G92C C108G U144C, the “polymerase ribozyme fitness (log ratio)” value is ≤ -4.2.

Turning to A49C C72G, the “polymerase ribozyme fitness (log ratio)” value is ≤ -4.2.

For A47G U55G, the “polymerase ribozyme fitness (log ratio)” value came out at 0.325.

As for A49C U56A C75A G86A, the “polymerase ribozyme fitness (log ratio)” value is ≤ -4.2.

Consider A49U C72U C76A A89U C93G C95G A98U, for which the “polymerase ribozyme fitness (log ratio)” value was ≤ -4.2.

As for A49G G133C, the “polymerase ribozyme fitness (log ratio)” value is -2.21.

As for G48A U55G G67A C114G A122C C131G, the “polymerase ribozyme fitness (log ratio)” value is ≤ -4.2.

For A49U C87A U101G G117U U130C, the “polymerase ribozyme fitness (log ratio)” value is ≤ -4.2.

Take G48U C75G G92U: the “polymerase ribozyme fitness (log ratio)” value is ≤ -4.2.

With A49U C116G C149U, the “polymerase ribozyme fitness (log ratio)” value was -4.18.

With G48C G50C U139G U144A, the “polymerase ribozyme fitness (log ratio)” value was ≤ -4.2.

As to A47G U55A C85G C129G, the “polymerase ribozyme fitness (log ratio)” value was ≤ -4.2.

Turning to A47U A66C G84A, the “polymerase ribozyme fitness (log ratio)” value is ≤ -4.2.

For the variant A49C G68U A89G A97U U135G, the “polymerase ribozyme fitness (log ratio)” value is ≤ -4.2.

With G50A A91G G100A G140U A147C, the “polymerase ribozyme fitness (log ratio)” value was ≤ -4.2.

For G48C U55A C96G U127C U134A, the “polymerase ribozyme fitness (log ratio)” value is ≤ -4.2.

In the case of A49U C75G C85A C129G, the “polymerase ribozyme fitness (log ratio)” value is ≤ -4.2.

As for G50A C57G G83C C96U A107G G133C G136A U148C, the “polymerase ribozyme fitness (log ratio)” value is ≤ -4.2.

As for A49U G50C U148G, the “polymerase ribozyme fitness (log ratio)” value is ≤ -4.2.

In the case of G48A C54A U55G G58U A97G, the “polymerase ribozyme fitness (log ratio)” value is -3.22.

Consider G48A G133U, for which the “polymerase ribozyme fitness (log ratio)” value is -3.81.

Consider A49G G50C U55A A66U G83A G84A U104A G133A A150G, for which the “polymerase ribozyme fitness (log ratio)” value is ≤ -4.2.
